Several values for one entry are separate records, joined by “and”; a condition that tells them apart may be missing. Equal entries are not always repeated. The campaign covered roughly 350,000 compounds. About 31,000 (8.9%) were called active. The inconclusive results got no clear call from the source; some entries with a clear call stand among them for comparison. Calls follow the shape of the dose curve; as a rule, active = well fitted inhibition curve with a large enough effect; inconclusive = small, poorly fitted or top-dose-only effect; inactive = no such curve, though single readings can be large or run the other way. Potencies of inconclusive entries are doubtful fits and often do not repeat. Some structures have more than one record in an assay (separate samples or runs), and their calls can disagree.
Biological target: Histone-lysine N-methyltransferase EHMT2 (Homo sapiens) (UniProt Q96KQ7)
UniProt Q96KQ7, sequence (Q96KQ7 whole entry, looked up): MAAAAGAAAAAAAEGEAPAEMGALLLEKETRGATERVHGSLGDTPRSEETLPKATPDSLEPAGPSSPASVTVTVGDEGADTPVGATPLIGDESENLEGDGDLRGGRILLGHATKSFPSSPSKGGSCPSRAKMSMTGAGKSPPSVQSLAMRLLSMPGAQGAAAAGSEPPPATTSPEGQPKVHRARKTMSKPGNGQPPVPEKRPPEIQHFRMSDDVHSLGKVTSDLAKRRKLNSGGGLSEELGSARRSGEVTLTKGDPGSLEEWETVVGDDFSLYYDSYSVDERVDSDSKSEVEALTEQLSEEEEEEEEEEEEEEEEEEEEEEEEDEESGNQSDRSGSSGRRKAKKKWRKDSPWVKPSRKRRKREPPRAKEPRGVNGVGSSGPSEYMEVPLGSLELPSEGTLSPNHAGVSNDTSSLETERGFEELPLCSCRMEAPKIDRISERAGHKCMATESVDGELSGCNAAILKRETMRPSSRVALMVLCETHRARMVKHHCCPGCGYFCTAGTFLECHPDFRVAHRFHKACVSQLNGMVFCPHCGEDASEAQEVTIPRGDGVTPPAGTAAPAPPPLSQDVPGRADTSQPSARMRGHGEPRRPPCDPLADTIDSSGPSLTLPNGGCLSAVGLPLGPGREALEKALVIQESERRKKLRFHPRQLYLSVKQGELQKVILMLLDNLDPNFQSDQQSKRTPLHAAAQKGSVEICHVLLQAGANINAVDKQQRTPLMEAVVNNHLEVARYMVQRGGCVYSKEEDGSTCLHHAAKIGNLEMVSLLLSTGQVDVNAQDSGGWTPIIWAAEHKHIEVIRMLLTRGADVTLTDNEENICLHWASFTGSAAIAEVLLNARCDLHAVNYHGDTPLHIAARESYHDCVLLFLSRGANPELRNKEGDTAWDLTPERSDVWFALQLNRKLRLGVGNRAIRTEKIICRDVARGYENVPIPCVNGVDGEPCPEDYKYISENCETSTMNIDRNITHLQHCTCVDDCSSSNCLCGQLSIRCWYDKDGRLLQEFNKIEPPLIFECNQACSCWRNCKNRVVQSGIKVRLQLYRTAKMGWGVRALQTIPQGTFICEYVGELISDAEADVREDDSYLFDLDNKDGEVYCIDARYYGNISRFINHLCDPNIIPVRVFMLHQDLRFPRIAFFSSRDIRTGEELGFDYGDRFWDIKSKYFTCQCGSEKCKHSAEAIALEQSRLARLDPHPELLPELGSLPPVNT
Test: qHTS Assay for Inhibitors of Histone Lysine Methyltransferase G9a; also: nearly all actives have a fitted effect of over 75% in size
Settings: G9a H3K9 monomethylation, AlphaScreen, 2 h; activity, negative = inhibition: at 59 µM (top of the series) unless noted
How it was run: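 Enzyme 20 nM + cpd, 15 min RT; add b-H3K9 pep 500 nM / SAM 20 uM; 2 h RT; anti-H3K9me1 Ab 0.5 ug/mL + SA donor / anti-rabbit acceptor beads 20 ug/mL each, 10 min; AlphaScreen read.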
% is scaled to controls: 0 for no effect and ±100 for the full control effect; potency is read from the fitted curve at half-maximal effect; tags tell the direction and shape of the fitted curve.

| SMILES | Potency | activity, negative = inhibition |
| --- | --- | --- |
| O=C(CCC(=O)c1ccccc1)Nc1cccnc1 | inconclusive: 89.1 µM [inhibitor, partial curve, poor fit] | – |
| Cc1cccn2c(CNCCc3ccccn3)c(C(=O)N3CCOCC3)nc12 | inconclusive: 15.8 µM [inhibitor, partial curve] | – |
| CCN1CCN(C(=O)c2ccc3c(c2)N(Cc2ccc(Cl)cc2)C(=O)c2ccccc2S3(=O)=O)CC1 | inconclusive: 25.1 µM [inhibitor, partial curve, poor fit] | – |
| COc1ccc(-c2[nH]c(-c3ccc(C)cc3)nc2SCC(=O)NCc2ccco2)cc1OC | active: 50.1 µM | – |
| Cc1cc(=O)n2c(C(=O)Nc3ccc(C)c(Cl)c3)c(C(=O)Nc3ccccc3)sc2n1 | inconclusive: 35.5 µM [inhibitor, partial curve, poor fit] | – |
| CCOc1ccc(NC(=O)Nc2cccs2)cc1 | inconclusive: 39.8 µM [inhibitor, single point] | – |
| CCC1=Nc2cc(C(=O)NCCCOC)ccc2Sc2ccccc21 | inconclusive: 39.8 µM [inhibitor, single point] | – |
| CS(=O)(=O)n1nc(-c2ccccc2)nc1NCc1ccco1 | inconclusive: 11.2 µM [inhibitor, partial curve, poor fit] | – |
| Cc1cc(C(=O)Cn2ncc(Cl)c(Cl)c2=O)c(C)n1CC(F)(F)F | – | inactive: 17.9% |
| CCOC(=O)c1c(Nc2cccc(O)c2)nnc(-c2ccccc2)c1-c1ccccc1 | inconclusive: 3.16 µM [inhibitor, full curve, poor fit] | – |
| Cc1ccc(Cl)cc1N1CCN(C(=O)CN2C(=O)COc3ccc(S(=O)(=O)N4CCOCC4)cc32)CC1 | – | inactive: 0.165% |
| COC(=O)CC1C2(C)CC34OC5(C)O[C@@]6(C7/C(=C(/O)C(C)C)C(=O)OC(c8ccoc8)[C@]7(C)C(OC(C)=O)C(OC(C)=O)[C@]6(O5)[C@@]13C)C(OC(C)=O)[C@]4(O)C2OC(=O)C(C)C (stereo not given in full) | – | inactive: -29% [at 2.33 µM] |
| S=C(NCCc1ccccc1)Nc1c(Cl)cccc1Cl | inconclusive: 31.6 µM [inhibitor, single point] | – |
| Cc1cc(C)c2c(n1)SCC(=O)N2CC(=O)Nc1ccc(F)cc1 | – | inactive: -8.92% [at 102 µM] |
| Cc1ccc(-c2nc(CS(=O)CC(=O)NCCC(C)C)c(C)o2)cc1 (stereo not given) | inconclusive: 89.1 µM [inhibitor, single point] | – |
| Oc1ccc(Nc2ncnc3c2oc2ccccc23)cc1 | inconclusive: 89.1 µM [inhibitor, single point] | – |
| CC(=O)c1ccc(NC2=NS(=O)(=O)c3ccccc32)cc1 | – | inactive: -11.5% |
| CC(C)[C@@H](C(=O)N1CCN(C(=O)OC(C)(C)C)CC1)n1cc(CCO)nn1 | – | inactive: -40.4% |
| Cc1ccc2oc(-c3cc(NC(=O)c4ncn[nH]4)ccc3O)nc2c1 | inconclusive: 100 µM [inhibitor, partial curve, poor fit] | – |
| CCN1CCN(C(=O)c2ccc3c(=O)n(CCC4=CCCCC4)c(=O)[nH]c3c2)CC1 | inconclusive: 35.5 µM [inhibitor, single point] | – |
| CCN1CCc2nc(N)sc2C1 | active: 12.6 µM | – |
| O=C(Nc1nnc(S(=O)(=O)N2CCCCCC2)s1)c1ccc(Br)cc1 | inactive and active: 14.1 µM | – |
| O.O.O.O.O.O.O.O=S(=O)([O-])[O-].[Co+2] | inconclusive: 12.6 µM [inhibitor, partial curve] | – |
| O=C(COc1ncnc2ccccc12)c1ccc2c(c1)OCCO2 | inconclusive: 79.4 µM [inhibitor, partial curve, poor fit] | – |

| SMILES | Potency | activity, negative = inhibition |
| --- | --- | --- |
| O=C(Nc1cccc(O)c1)c1cc(-c2ccco2)on1 | inconclusive: 28.2 µM [inhibitor, single point] | – |
| O=C(c1cc(=O)c2cc(Cl)ccc2o1)N1CCN(Cc2ccccc2)CC1 | – | inactive: -11.7% [at 102 µM] |
| Cc1ccc(-c2cc(C(=O)NCc3ccccn3)c3ccccc3n2)cc1C | inconclusive: 25.1 µM [inhibitor, single point] | – |
| C=CCN1C(=O)c2ccc(C(=O)OCC(=O)Nc3ccc(S(N)(=O)=O)cc3)cc2C1=O | active: 50.1 µM | – |
| Clc1ccc(CSc2nnc([C@@H]3CCCN3)o2)cc1 | inconclusive: 79.4 µM [inhibitor, single point] | – |
| COc1ccc(N2CCN(C3CCCN(Cc4ccc(F)cc4)C3)CC2)cc1 (stereo not given) | inconclusive: 89.1 µM [inhibitor, single point] | – |
| Cc1cccc(NC(=O)CCS(=O)(=O)c2ccc3c(c2)NC(=O)CS3)n1 | – | inactive: 58.7% [at 102 µM] |
| Cc1ccc(C(=O)Nc2ccc(C(=O)O)cc2)cc1S(=O)(=O)Nc1cccc([N+](=O)[O-])c1 | inconclusive: 56.2 µM [inhibitor, partial curve] | – |
| NS(=O)(=O)c1ccc(NC(=O)C2C3C=CC(C3)C2C(=O)O)cc1 (stereo not given) | – | inactive: -4% [at 102 µM] |
| O=C(COc1cccc(F)c1)Nc1nc(-c2cccnc2)cs1 | – | inactive: -37.8% [at 12.7 µM] |
| CS(=O)(=O)Nc1cccc(C(=O)OCCCOc2ccc(F)cc2)c1 | – | inactive: 12.8% [at 102 µM] |
| O=C(CN1CCN(Cc2ccc(F)cc2)CC1)Nc1nc2ccccc2s1 | inconclusive: 89.1 µM [inhibitor, single point] | – |
| COc1ccc2oc(=N)c(-c3nnc4n3CCCCC4)cc2c1 | inconclusive: 79.4 µM [inhibitor, single point] | – |
| COc1cc(CNCCO)cc(Cl)c1OCc1ccccc1Cl | inconclusive: 3.55 µM [inhibitor, partial curve, poor fit] | – |
| C(=N\Nc1nc(-c2ccccc2)cs1)/c1ccco1 | active: 12.6 µM | – |
| CN(C)CCNc1oc(COc2ccc(-c3ccccc3)cc2)nc1C#N | active: 44.7 µM | – |
| CC1CC(=S)Nc2ccccc2N1Cc1ccccc1 (stereo not given) | inconclusive: 39.8 µM [inhibitor, single point] | – |
| Cc1nc(-c2cccc(Cl)c2)n[nH]1 | inconclusive: 44.7 µM [inhibitor, single point] | – |
| O=C(Nc1ccccc1C(F)(F)F)c1cnccn1 | – | inactive: -118% [at 102 µM] |
| COc1ccc(OC)c(NC(=O)c2ccc(-c3nc(CSc4ccccc4)c(C)o3)cc2)c1 | inconclusive: 2 µM [inhibitor, full curve, poor fit] | – |
| O=C(Nc1ccc(N2CCOCC2)c(Cl)c1)c1ccc(-n2cnnc2)cc1Cl | inconclusive: 79.4 µM [inhibitor, single point] | – |
| COc1ccc(CCNC(=O)c2cc(C(=O)c3cc(Cl)ccc3O)cn(CCc3ccc(OC)cc3)c2=O)cc1 | inconclusive: 35.5 µM [inhibitor, single point] | – |
| CN1C(C(=O)NCCc2cccs2)CC2Cn3c(nc4cc5ccccc5cc43)C21 (stereo not given) | – | inconclusive: -87.7% [inhibitor] |
| COc1cc2c(cc1OC)C(C(=O)O)C(c1cc(Br)c(O)c(OC)c1)N(C)C2=O (stereo not given) | active: 35.5 µM | – |

| SMILES | Potency | activity, negative = inhibition |
| --- | --- | --- |
| CCOc1ccccc1NC(=O)CN1CCN(Cc2ccccc2)CC1 | – | inactive: 16.4% [at 102 µM] |
| COc1ccc(C(=O)NC2=NCCS2)c(OC)c1 | – | inactive: 5.43% [at 12.7 µM] |
| COCCN(CCOC)S(=O)(=O)c1ccc(NC(=O)c2cnccn2)cc1 | – | inactive: 17% |
| O=C1C(C2=NC(c3ccccn3)C3C(=O)N(c4ccc(OC(F)(F)F)cc4)C(=O)C23)=C(O)c2ccccc21 (stereo not given) | – | inactive: 10.6% [at 102 µM] |
| CCOC(=O)c1c(CN(C)C)oc2cc(CN(C)C)c(O)c(CSc3ccccc3)c12 | inconclusive: 3.98 µM [inhibitor, single point] | – |
| Cc1ccc(C(=O)N/C(=C\c2cn(S(=O)(=O)N(C)C)c3ccccc23)C(=O)N2CCCC2)cc1 | – | inactive: 14.9% [at 102 µM] |
| CCc1nnc(NS(=O)(=O)c2ccc(NS(=O)(=O)c3ccc(NC(C)=O)cc3)cc2)s1 | – | inactive: -4.31% [at 102 µM] |
| O=S(=O)(Nc1ccc(O)c(Sc2nc3ccccc3s2)c1)c1cccc2ccccc12 | active: 44.7 µM | – |
| CSc1ncnc2sc(C)c(C)c12 | inconclusive: 5.01 µM [inhibitor, partial curve, poor fit] | – |
| COc1ccccc1CCNC(=O)c1ccc(NC(=O)N2CC(C)Sc3ccccc32)cc1 (stereo not given) | – | inactive: 2.91% |
| Cc1ccc(CN2CC(C(=O)N3CCN(S(=O)(=O)c4c(F)cccc4F)CC3)CC2=O)cc1 (stereo not given) | inconclusive: 89.1 µM [inhibitor, single point] | – |
| COc1cc(/C=C2\C(=N)N3N=C(S(C)(=O)=O)SC3=NC2=O)ccc1OCCOc1ccc(C)cc1 | inconclusive: 89.1 µM [inhibitor, single point] | – |
| CCOC(=O)c1ccc(N=C2NC(=O)CS2)cc1 | – | inactive: 19.5% |
| O=C(CSc1nnc2c(Cl)cc(Cl)cn12)N1CCN(S(=O)(=O)c2ccccc2)CC1 | inconclusive: 89.1 µM [inhibitor, partial curve, poor fit] | – |
| NS(=O)(=O)c1ccc(NC(=S)NCc2ccc(Cl)cc2)cc1 | active: 8.91 µM | – |
| Cc1cccc(NC(=O)C2C3C=CC(C4CC34)C2C(=O)O)c1 (stereo not given) | inconclusive: 31.6 µM [inhibitor, single point] | – |
| CN(C)CCNc1ncnc2c1sc1nc(N3CCCC3)c3c(c12)CC(C)(C)OC3 | inconclusive: 39.8 µM [inhibitor, partial curve, poor fit] | – |
| CCCCCCCCCCOC(=O)C[N+](C)(C)C/C=C(/C)Cl | – | inactive: 8.78% |
| CCCn1nc(C(=O)Nc2ccc(-n3cnnn3)cc2)c2ccccc2c1=O | – | inactive: -31.6% [at 102 µM] |
| C/C=C(\C)C(=O)O[C@@H]([C@H](O)c1cc2ccc(=O)oc2cc1OC)C(C)(C)O | – | inactive: -6.52% [at 2.33 µM] |
| Cc1ccc(C(=O)NNC(=O)c2nn(-c3ccc(F)cc3)ccc2=O)cc1 | – | inconclusive: -51.2% [inhibitor] |
| Cc1ccc(S(=O)(=O)N(CC2CO2)c2cccc([N+](=O)[O-])c2)cc1 (stereo not given) | – | inactive: -0.435% [at 102 µM] |

— PubChem BioAssay AID504332 (National Center for Advancing Translational Sciences (NCATS), 2011)
